Measurements: PubChem BioAssay AID1468 (National Center for Advancing Translational Sciences (NCATS), 2008)
Where “and” joins values, the source holds several entries; their conditions need not be identical. Equal values may be shown once. About 1,100 (0.39%) of roughly 280,000 compounds were called active. The inconclusive results got no clear call from the source; some entries with a clear call stand among them for comparison. Calls come from the whole dose curve; as a rule, active = well fitted inhibition curve with a large enough effect; inconclusive = small, poorly fitted or top-dose-only effect, or effect the other way; inactive = flat fitted curve, though single readings scatter. Potencies of inconclusive entries are doubtful fits and often do not repeat.

The molecules below were run against Microtubule-associated protein tau (Homo sapiens) (UniProt P10636) (assay: qHTS for Inhibitors of Tau Fibril Formation, Fluorescence Polarization). Conditions: K18 P301L tau heparin fibrillization, Alexa594 FP, 6 h; series mostly up to 57.7 µM; activity, negative = inhibition: at the top concentration.
In short: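 Read-out: fluorescence polarization of Alexa 594-labeled tau (0.24 uM), 555 nm excitation, 632 nm emission. Mixtures held 15 uM unlabeled K18 P301L, compound and 20 uM heparin, pH 7 acetate buffer, incubated 6 hr at 37 C.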
% is set by controls: 0 for no effect and ±100 for the full control effect; potency is the fitted concentration of half-maximal effect; tags give direction and shape of the fitted curve.
Note: nearly all actives have a fitted effect of over 55% in size.

Chain of UniProt P10636 (P10636 whole entry, looked up): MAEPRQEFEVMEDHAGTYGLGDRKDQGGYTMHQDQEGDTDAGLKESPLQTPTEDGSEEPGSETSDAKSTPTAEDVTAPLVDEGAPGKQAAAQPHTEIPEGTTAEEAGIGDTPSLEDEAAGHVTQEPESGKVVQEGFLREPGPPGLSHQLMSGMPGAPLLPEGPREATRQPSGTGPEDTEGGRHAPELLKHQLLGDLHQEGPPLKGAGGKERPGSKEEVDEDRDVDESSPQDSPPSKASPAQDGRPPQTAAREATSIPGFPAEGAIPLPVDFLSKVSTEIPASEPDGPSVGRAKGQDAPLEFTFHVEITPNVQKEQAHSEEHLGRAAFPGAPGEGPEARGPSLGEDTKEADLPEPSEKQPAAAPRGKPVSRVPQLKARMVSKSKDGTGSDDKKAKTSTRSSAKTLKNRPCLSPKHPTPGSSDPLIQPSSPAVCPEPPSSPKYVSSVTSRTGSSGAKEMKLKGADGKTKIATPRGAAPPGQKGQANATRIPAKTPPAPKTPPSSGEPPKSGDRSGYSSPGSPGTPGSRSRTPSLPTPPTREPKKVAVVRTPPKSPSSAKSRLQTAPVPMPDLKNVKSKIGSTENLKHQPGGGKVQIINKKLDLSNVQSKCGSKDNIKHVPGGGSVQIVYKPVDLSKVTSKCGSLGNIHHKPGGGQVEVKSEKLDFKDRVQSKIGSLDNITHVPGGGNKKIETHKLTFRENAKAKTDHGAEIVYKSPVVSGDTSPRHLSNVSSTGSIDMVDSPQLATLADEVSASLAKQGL

SMILES | Potency | activity, negative = inhibition
CC(C)(C)C(=O)Nc1ccccc1N1CCN(C(=O)c2ccc(Cl)cc2)CC1 | inconclusive: 0.199 µM [activator, full curve, poor fit] | –
CCOc1cc(N2CCOCC2)c(OCC)cc1NC(=O)c1cccc(N(C)C)c1 | inconclusive: 28.2 µM [activator, single point] | –
CCC(=O)Oc1oc(-c2ccccc2)nc1C=Nc1ccc(C)cc1 | – | inactive: -2.33%
O[C@H](CN1CCN(c2cccc(Cl)c2)CC1)C(c1ccccc1)c1ccccc1 | – | inactive: 5.67%
CCN(CC)S(=O)(=O)c1cccc(C(=O)N/N=C(\C)c2ccc(O)cc2O)c1 | inconclusive: 17.8 µM [activator, partial curve] | –
O=C(/C(C=Nc1ccc(Br)cc1)=C(/O)c1ccco1)C(F)(F)F | – | inactive: 3.64%
CN1C/C(=C/c2cccnc2)C(=O)/C(=C/c2cccnc2)C1 | inconclusive: 15.8 µM [inhibitor, partial curve] | –
CC1CCN(C(=O)Cn2cc(SCc3ccccc3)c3ccccc32)CC1 | – | inactive: 7.94%
C=CCNC(=S)N1CCOCC1 | inconclusive: 7.08 µM [activator, single point] | –
O=C(CCNC(=O)c1ccccc1Cl)Nc1ccc(Br)c(C(F)(F)F)c1 | inconclusive: 17.8 µM [inhibitor, partial curve, poor fit] | –
Cc1cc(C)c(CSc2ncnc3nc[nH]c23)c(C)c1 | inconclusive: 0.141 µM [inhibitor, single point] | –
O=C(/C=C/c1ccc(N2CCCCC2)c([N+](=O)[O-])c1)c1ccc(O)cc1 | inconclusive: 31.6 µM [inhibitor, partial curve] | –
Cc1cc(C)c(S(=O)(=O)N2CCN(c3ccc([N+](=O)[O-])c(NCc4ccco4)c3)CC2)c(C)c1 | inconclusive: 22.4 µM [inhibitor, single point] | –
O=C(NCc1nc2ccccc2[nH]1)C1=C[C@@H](c2csc3ccccc23)C[C@@H](OCc2ccc(CO)cc2)O1 | inconclusive: 28.2 µM [inhibitor, single point] | –
Cc1ccc(C(=O)c2c(C)oc3c2C(=O)C(=O)c2ccccc2-3)cc1 | inconclusive: 4.47 µM [inhibitor, partial curve] | –
CC1CCN(S(=O)(=O)c2cn(CC(=O)Nc3ccc(F)c(Cl)c3)c(=O)c3ccccc23)CC1 | active: 10 µM | –
COc1ccc2c(c1)CCc1sc(NC(=O)c3ccc(Cl)cc3)nc1-2 | inconclusive: 15.8 µM [inhibitor, partial curve, poor fit] | –
Cc1cc(C2=NNC(=NC3CC3)SC2)c(C)n1Cc1ccco1 | inconclusive: 17.8 µM [inhibitor, partial curve] | –
O=C(COC(=O)c1cc2ccccc2o1)c1ccccc1 | inconclusive: 25.1 µM [inhibitor, single point] | –
CCC(C)C1NC(=O)C(CCNCS(=O)(=O)O)NC(=O)C(NC(=O)C(CCNCS(=O)(=O)O)NC(=O)C(NC(=O)C(CCNCS(=O)(=O)O)NC(=O)CCCCC(C)C)C(C)O)CCNC(=O)C(C(C)O)NC(=O)C(CCNCS(=O)(=O)O)NC(=O)C(CCNCS(=O)(=O)O)NC(=O)C(C(C)CC)NC1=O (centres undefined) | – | inactive: 2.43%
COc1ccc(NC(=O)Nc2cccc(Cl)c2Cl)c(OC)n1 | inconclusive: 0.282 µM [activator, partial curve, poor fit] | –
Cc1cccc(NC(=O)Nc2ccc(Oc3c(F)c(F)c(F)c(F)c3F)cc2)c1 | inconclusive: 3.55 µM [inhibitor, full curve, poor fit] | –

SMILES | Potency | activity, negative = inhibition
Cn1cc(/C=C2/SC(=O)N(c3ccccc3)C2=O)c2ccccc21 | – | inactive: 5.04%
CC1=NN(c2ccc(Cl)cc2)C(=O)C1C(c1cccc(O)c1)c1c(C)[nH]n(-c2ccc(Cl)cc2)c1=O (centres undefined) | – | inactive: -8.09%
COc1ccc(NC(=O)c2cccnc2)c([N+](=O)[O-])c1 | inconclusive: 2.82 µM [inhibitor, single point] | –
O=C(COc1ccc(Cl)cc1)Nc1sc2c(c1C(=O)Nc1cccc(Cl)c1)CCCC2 | inconclusive: 10 µM [inhibitor, partial curve] | –
FC(F)(F)c1cccc(NC(=S)Nc2ccc(Cl)cc2Cl)c1 | inconclusive: 39.8 µM [inhibitor, single point] | –
O=C(NC(=S)Nc1cc(C(F)(F)F)ccc1N1CCOCC1)c1ccco1 | inconclusive: 39.8 µM [inhibitor, single point] | –
Cc1occc1-c1nnc(SCC(=O)NCC2CCCO2)n1C (centres undefined) | – | inactive: -2.71%
CCOC(=O)C1=C(C)NC(SCc2cc(=O)[nH][nH]2)=C(C#N)C1c1cccs1 (centres undefined) | inconclusive: 8.91 µM [inhibitor, partial curve] | –
COc1cc(/C=N\Nc2nc(-c3ccc(C)cc3)c(NC(C)=O)s2)ccc1O | – | inactive: 5.99%
CCCN(CCC)CCCNC(=S)Nc1ccc2nc(N3CCN(CC)CC3)cc(C)c2c1 | – | inactive: -2.4%
COc1cccc(NC(=O)CSc2cc(=O)n(C)c3ccc(Cl)cc23)c1 | inconclusive: 15.8 µM [inhibitor, partial curve] | –
CC(=O)C1=C(C)NC(SCC(=O)c2ccc(C)cc2)=C(C#N)C1c1ccco1 (centres undefined) | inconclusive: 39.8 µM [inhibitor, single point] | –
CCOC(=O)CSc1nnc2cc(C)c3ccccc3n12 | – | inactive: 3.66%
COc1ccccc1-c1cc(C(=O)NCc2cccs2)no1 | inconclusive: 14.1 µM [inhibitor, partial curve] | –
COC(=O)c1ccc(NC(=O)CCc2c(C)nc3c(c(C)nn3-c3ccc(C)cc3)c2C)cc1 | inconclusive: 31.6 µM [inhibitor, partial curve, poor fit] | –
Cc1nnc(NN)n(N)c1=O | inconclusive: 11.2 µM [inhibitor, partial curve, poor fit] | –
CCOC(=O)C1=C(C)OC(N)=C(C#N)C1c1cc2c(cc1[N+](=O)[O-])OCO2 (centres undefined) | inconclusive: 39.8 µM [inhibitor, single point] | –
COc1ccc(CCNc2nc(-c3ccc(C)cc3)cc(C(F)F)n2)cc1OC | inconclusive: 3.55 µM [inhibitor, partial curve] | –
CC1CCc2c(sc3ncn(CC(=O)N=Nc4c(O)[nH]c5ccccc45)c(=O)c23)C1 (centres undefined) | inconclusive: 35.5 µM [inhibitor, single point] | –
COc1ccc(Oc2ccc(N/C=C3\CCCC3=O)cc2)cc1 | inconclusive: 12.6 µM [activator, partial curve] | –
CCN(c1ccccc1)S(=O)(=O)c1ccc2[nH]cc(C(=O)NC3CCCCC3)c(=O)c2c1 | active: 3.55 µM | –
COc1cc(C(=O)Nc2nccs2)cc(OC)c1OC | inconclusive: 2 µM [inhibitor, partial curve, poor fit] | –

SMILES | Potency | activity, negative = inhibition
Cc1c(C(=O)Nc2ccc(F)c(F)c2)oc2ccc(S(=O)(=O)N3CCCCC3)cc12 | inconclusive: 20 µM [inhibitor, partial curve] and inconclusive: 14.1 µM [inhibitor, partial curve] | –
CC1=CC(=C2C=CC(=O)C=C2)C=C(C)N1C | – | inactive: 4%
COc1ccc(CNC(=O)Cn2c(=O)oc3cc(S(=O)(=O)N4CCCCCC4)ccc32)cc1 | inconclusive: 1.58 µM [inhibitor, full curve, poor fit] | –
COc1ccc(N2CCN(C(=O)CCc3c(C)nc4c(-c5ccccc5)c(C)nn4c3C)CC2)cc1 | – | inactive: -7.79%
NC(=O)c1ccc(NC(=O)CSC2=Nc3ccccc3C3CC=NN23)cc1 (centres undefined) | inconclusive: 15.8 µM [inhibitor, partial curve] | –
CC(C)(Oc1ccc(Cl)cc1)C(=O)N/N=C/c1cn[nH]c1-c1ccccc1 | – | inactive: -8.74%
CC(=O)O[C@@H]1C(CO[Si](C)(C)C(C)(C)C)=C(Br)C(=O)[C@@H]2O[C@]12C | inconclusive: 28.2 µM [inhibitor, partial curve] | –
O=C(COc1ccc(F)cc1)c1c(O)cc(O)cc1O | – | inactive: 0.83%
CC(=C/c1ccco1)/C=N/NC(=O)CSc1nnc(SCc2ccc(C)cc2)s1 | inconclusive: 35.5 µM [inhibitor, single point] | –
CCOC(=O)c1c(C)[nH]c(C(=O)COC(=O)CNC(=O)c2ccc(Cl)cc2)c1C | inconclusive: 3.98 µM [inhibitor, single point] | –
COc1cc(/C=C2/CC/C(=C/c3ccc(O)c(OC)c3)C2=O)ccc1O | inconclusive: 5.01 µM [activator, partial curve] | –
Cc1cc(N2CCN(C)CC2)nc2ccc(NC(=O)Nc3ccccc3Br)cc12 | inconclusive: 3.55 µM [activator, full curve, poor fit] | –
CCOc1ccc(S(=O)(=O)N(CC(=O)Nc2cccnc2)c2ccccc2)cc1 | – | inactive: -5.67%
CCOC(=O)c1cc2c(ccn2C)n1CC(=O)N1CCN(c2ccc(F)cc2)CC1 | – | inactive: 13.1%
CCc1cccc(N(C)C(N)=Nc2cccc3ccccc23)c1 | inconclusive: 4.47 µM [inhibitor, full curve, poor fit] | –
O=C(Cn1ccn(-c2cccc(Cl)c2)c(=O)c1=O)NCCc1ccccc1 | inconclusive: 4.47 µM [inhibitor, single point] | –
Cc1nn(Cc2ccccc2)c(Cl)c1C(=O)OCC#N | – | inactive: -0.227%
O=C(CCc1ccc(S(=O)(=O)N2CCOCC2)cc1)N/N=C/c1ccc(O)c(O)c1O | inconclusive: 31.6 µM [inhibitor, partial curve] | –
CC(C)Oc1ccc(CNC(=O)Cn2nc(N3CCN(c4ccccc4)CC3)ccc2=O)cc1 | – | inactive: 8.81%
O=c1c(O[C@@H]2O[C@H](CO)[C@H](O)[C@H](O)[C@H]2O)c(-c2ccc(O)c(O)c2)oc2cc(O)cc(O)c12 | – | inactive: -2.48%
